Here are results for 37 molecules from PubChem BioAssay AID1745853 (National Center for Advancing Translational Sciences (NCATS), 2022).

Each structure is given as a SMILES string. Some of the results follow. Further columns of the screen follow, without active or inactive calls.

Common to all, as to test: Primary Screen for Target Class Profiling of Small Molecule Inhibitors of Methyltransferases
For test [1], the target named is Glycine N-methyltransferase (Homo sapiens) (UniProt Q14749). Conditions: purified enzyme, MTase-Glo SAH luminescence; measured here: GNMT inhibition; at 40 µM; stronger effect = lower value. Summed up:
(§1)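 Each enzyme was assayed with SAM and its substrate. SAH formation detected by MTase-Glo luminescence; single-point 40 uM screen[…].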

Test [2] addresses Guanidinoacetate N-methyltransferase (Homo sapiens) (UniProt Q14353). Conditions: purified enzyme, MTase-Glo SAH luminescence; measured here: GAMT inhibition; at 40 µM; stronger effect = lower value. The gist of the method: as §1
Test [3] addresses Histamine N-methyltransferase (Homo sapiens) (UniProt P50135). The note with it: purified enzyme, MTase-Glo SAH luminescence; measured here: HNMT inhibition; at 40 µM; stronger effect = lower value. Summed up: as §1
Test [4] has as its target Nicotinamide N-methyltransferase (Homo sapiens) (UniProt P40261). The note with it: purified enzyme, MTase-Glo SAH luminescence; measured here: NNMT inhibition; at 40 µM; stronger effect = lower value. Summed up:
as §1

In test [5] the target is Phenylethanolamine N-methyltransferase (Homo sapiens) (UniProt P11086). Conditions: purified enzyme, MTase-Glo SAH luminescence; measured here: PNMT inhibition; at 40 µM; stronger effect = lower value. Summed up:
as §1
% is scaled to controls: 0 for no effect and ±100 for the full control effect.

As for `CCOC(=O)c1cc2n(n1)CC(C)(C(=O)NC1CCCCCC1)N(Cc1ccc(CC)cc1)C2=O` (configuration not stated), the activity change, negative = inhibition in test [1] was 2.09%; in test [2], 0%; in test [3], 1.44%; in test [4] it was -5.28%; in test [5], 3.57%.
In the same order, the values of `CN(C)CC1(O)CCC2(CCN(C(=O)C3CCCC3)CC2)CC1` are 0.298%, -0.098%, -0.664%, -8.89% and 13.8%.
In the same order, the values of `COc1ccc(OC)c(Nc2nc3c(S(=O)(=O)c4ccc(F)cc4)nnn3c3ccccc23)c1` are 3.1%, 1.17%, 10.4%, 13.9% and 2.79%.
The like results for `CN(C)CC#CCCC(=O)C(O)(c1ccccc1)C1CCC1` (configuration not stated) were, in that order, 1.39%, 0.69%, -1.74%, -10% and -0.701%.
As to `O=C(CCCc1nnc2n3nc(-c4ccccc4)nc3c3ccccc3n12)NCc1ccc(Cl)cc1`, the activity change, negative = inhibition in test [1] was -1.15%; in test [2], 5.76%; in test [3], 5.99%; in test [4], 11.7%; in test [5], 1.14%.
In the same order, the values of `COc1ccccc1-c1cc(C(=O)NC2CC2)nn2cnnc12` are -3.29%, -2.55%, -0.958%, -5.66% and -4.78%.
In the same order, the values of `Cc1ccc(CN2CCNC(=O)C2CC(=O)N(CC(C)C)CC(C)C)cc1` (configuration not stated) are -10%, -5.88%, -3.31%, -15.5% and -8.44%.
Take `CCOc1ccc(Cl)cc1CN(C)C(=O)C1CC(=O)N(CC)C1` (configuration not stated): the activity change, negative = inhibition is 0.446% in test [1]; 1.39% in test [2]; -1.13% in test [3]; 1.8% in test [4]; 0.796% in test [5].
With `CCC1c2ccc(C)n2CCN1C(=O)Nc1cccc(Br)c1` (configuration not stated), the activity change, negative = inhibition in test [1] is -2.39%; in test [2] it was 0%; in test [3], -1.28%; in test [4], -9.77%; in test [5] it was -6.61%.
In the same order, the values of `CCOc1ccc(NC(=O)N2Cc3c(sc4c3CCCC4)-n3cccc3C2c2cccc(C)c2)cc1` (configuration not stated) are -4.06%, 0%, 1.66%, -0.656% and 1.98%.
In the same order, the values of `CC(C)(C)NCCCNC(=O)c1cccc(Br)c1` are 0.554%, 7.63%, 2.72%, -8.71% and 5.57%.
In the same order, the values of `C[C@@H]1O[C@@H](O[C@@H]2[C@@H](O)[C@@H](O[C@]3(CO)O[C@H](CO)[C@@H](O)[C@@H]3OC(=O)/C=C/c3ccc(O)cc3)O[C@H](CO)[C@H]2OC(=O)/C=C/c2ccc(O)cc2)[C@H](O)[C@H](O)[C@H]1O[C@@H]1O[C@@H](C)[C@H](O[C@@H]2OC[C@](O)(CO)[C@H]2O)[C@@H](O)[C@H]1O` are -1.34%, 1.87%, 5.19%, -7.77% and -0.498%.
On to `COc1ccccc1-c1[nH]nc2ncc(C(=O)NCC3CC3)nc12`, for which the activity change, negative = inhibition in test [1] is -44.7%; in test [2] it was -35.6%; in test [3], -52.1%; in test [4] it was -31.4%; in test [5], -17.1%.
The like results for `CN1C(=O)c2cc(C(=O)N3CCN(c4ccc(F)cc4)CC3)nn2CC1(C)C(=O)NC1CCCC1` (configuration not stated) were, in that order, 3.02%, 0%, 3.59%, 2.18% and 3.41%.
In the same order, the values of `CC1(C(=O)NCc2ccccc2)Cn2nc(-c3ccccc3)cc2C(=O)N1CCc1ccco1` (configuration not stated) are -4.51%, -2.61%, -2.48%, -10.4% and -8.7%.
The like results for `C=C1CCC2C(C(C)(C)O)CCC2(C)CC(O)C(=C)CCC1O` (configuration not stated) were, in that order, -0.86%, 0.481%, 3.96%, -10.7% and -8.38%.
With `CCCC1c2cccn2CCN1C(=O)Nc1ccc(C)c(C)c1` (configuration not stated), the activity change, negative = inhibition is -1.2% in test [1]; 0% in test [2]; -12.3% in test [3]; -1.42% in test [4]; 0.303% in test [5].
The like results for `Cn1cc(CN2CCCC(C(=O)N3CCOCC3)C2)c(-c2ccc(C3CCCCC3)cc2)n1` (configuration not stated) were, in that order, 0.845%, -0.452%, 1.09%, -1.24% and -0.063%.
In the same order, the values of `COc1ccc(S(=O)(=O)N2CCOC[C@H](Oc3ccccc3)C2)cc1` are -8.05%, -4.82%, -2.19%, -9.76% and -7.24%.
In the same order, the values of `CC1(C(=O)NC2CCCCCC2)Cn2c(nc3ccccc32)C(=O)N1Cc1ccccn1` (configuration not stated) are 5.41%, 1.28%, 11.3%, 5.02% and 6.51%.
Take `O=C1N(CC2CC2)CCCC1(O)CNCc1cc(F)cc(F)c1` (configuration not stated): the activity change, negative = inhibition in test [1] was -4.75%; in test [2], -4.4%; in test [3], -0.895%; in test [4], -11.3%; in test [5], 9.35%.
Turning to `CSCCC(NS(=O)(=O)c1ccc2c(c1)oc(=O)n2C)C(=O)N1CCN(c2cc(C)ccc2C)CC1` (configuration not stated), the activity change, negative = inhibition was 8.95% in test [1]; 2.15% in test [2]; 9.17% in test [3]; -4.27% in test [4]; 1.96% in test [5].
In the same order, the values of `OCCOCCn1cnc(-c2ccccc2)c1COCc1ccccc1` are -5.5%, -0.442%, -0.459%, -3.7% and -3.6%.
In the same order, the values of `CCCn1c(=O)c2cc(F)ccc2n2c(SCC(=O)N3CCN(c4ccc(F)cc4)CC3)nnc12` are -4.44%, 0%, 5.2%, -1.18% and 0.092%.
The like results for `O=C(CSc1nnc2n(CCc3ccccc3)c(=O)c3ccccc3n12)Nc1cccc(F)c1` were, in that order, 3.45%, 0%, 9.04%, 1.52% and 1.68%.
On to `O=C(/C=C/c1ccccc1)OC[C@H]1O[C@@H](OC(=O)c2cc(O)c(O)c(O)c2)[C@H](O)[C@@H](O)[C@@H]1O`, for which the activity change, negative = inhibition is -1.48% in test [1]; 6.72% in test [2]; 9.41% in test [3]; -7.46% in test [4]; 3.52% in test [5].
In the same order, the values of `CN1C(=O)c2cc(C(=O)NCCc3ccccc3)nn2CC1(C)C(=O)NCc1ccc(F)cc1` (configuration not stated) are 5.37%, 0%, 2.82%, 5.26% and 1.3%.
The like results for `COc1ccc(Cl)cc1NS(=O)(=O)c1ccc2[nH]c3c(c2c1)CCCC3` were, in that order, 2.16%, 6.66%, -3.06%, -7.75% and 1.64%.
The like results for `O=C(CC1CCCCC1)NCc1nnc2cc(-c3nc(C4CC4)no3)ccn12` were, in that order, -6.11%, -9.1%, -3.4%, -10.8% and -8.61%.
`CC1(C)CC[C@]2(C(=O)OC3OC(CO)C(O)C(O)C3O)CC[C@]3(C)C(=CCC4[C@@]5(C)C[C@@H](O)[C@H](OC6OC(C(=O)O)C(O)C(O)C6O)C(C)(C)C5CC[C@]43C)[C@@H]2C1` (some centres not stated): the activity change, negative = inhibition in test [1] was -0.026%; in test [2], -2.75%; in test [3], 4.26%; in test [4], -14.1%; in test [5], -0.657%.
The like results for `CCOC(=O)C1CCN(c2nc3c(S(=O)(=O)c4ccc(Br)cc4)nnn3c3ccccc23)CC1` were, in that order, -2.1%, 3.79%, 4.93%, 1.07% and -3.53%.
Consider `COc1cccc(S(=O)(=O)N2C[C@@H](C)[C@](O)(C3CCC3)C2)c1`, for which the activity change, negative = inhibition in test [1] is -4.54%; in test [2] it was 1.18%; in test [3] it was 2.14%; in test [4], 0.261%; in test [5], 0.848%.
Regarding `CNCCC=C1c2ccccc2CCc2ccccc21`, the activity change, negative = inhibition in test [1] is -3.13%; in test [2], 5.87%; in test [3], -25.8%; in test [4], -23.7%; in test [5], 5.91%.
In the same order, the values of `Cc1noc(C)c1S(=O)(=O)N1CCc2n[nH]c(=O)n2CC1` are -6.41%, -3.06%, -3.02%, -1.36% and 2.7%.
The like results for `CCOC(=O)c1cc2n(n1)CC(C)(C(=O)NCCC(C)C)N(c1ccccc1CC)C2=O` (configuration not stated) were, in that order, 0.266%, 5.07%, 2.88%, 0.503% and -1.68%.
The like results for `CC1(C(=O)NC2CCCCC2)Cn2c(cc3occc32)C(=O)N1CCc1ccc(Cl)cc1` (configuration not stated) were, in that order, -4%, 2.68%, 5.01%, -3.66% and -1.69%.
In the case of `CC[C@]1(O)CC2CN(CCc3c([nH]c4ccccc34)[C@@](C(=O)OC)(c3cc4c(cc3OC)N(C=O)[C@H]3[C@@](O)(C(=O)OC)[C@H](OC(C)=O)[C@]5(CC)C=CCN6CC[C@]43[C@@H]65)C2)C1` (some centres not stated), the activity change, negative = inhibition in test [1] was -8.03%; in test [3], 4.04%.
